Paper PMC4336329 (PLoS ONE, 2015)
Screen size: about 310,000 compounds; about 14,000 (4.5%) showed an effect of 50% or more. The effect is printed as a negative number. This is one part of the list.

Target: human ether-à-go-go-related gene (hERG) potassium channel (human, UniProt Q12809)
Assay: primary screen, population patch clamp on CHO cells stably expressing hERG
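Further: peak tail current of the secondary pulse compared with the same well before compound.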

Sequence of human ether-à-go-go-related gene (hERG) potassium channel (Q12809 whole entry, looked up): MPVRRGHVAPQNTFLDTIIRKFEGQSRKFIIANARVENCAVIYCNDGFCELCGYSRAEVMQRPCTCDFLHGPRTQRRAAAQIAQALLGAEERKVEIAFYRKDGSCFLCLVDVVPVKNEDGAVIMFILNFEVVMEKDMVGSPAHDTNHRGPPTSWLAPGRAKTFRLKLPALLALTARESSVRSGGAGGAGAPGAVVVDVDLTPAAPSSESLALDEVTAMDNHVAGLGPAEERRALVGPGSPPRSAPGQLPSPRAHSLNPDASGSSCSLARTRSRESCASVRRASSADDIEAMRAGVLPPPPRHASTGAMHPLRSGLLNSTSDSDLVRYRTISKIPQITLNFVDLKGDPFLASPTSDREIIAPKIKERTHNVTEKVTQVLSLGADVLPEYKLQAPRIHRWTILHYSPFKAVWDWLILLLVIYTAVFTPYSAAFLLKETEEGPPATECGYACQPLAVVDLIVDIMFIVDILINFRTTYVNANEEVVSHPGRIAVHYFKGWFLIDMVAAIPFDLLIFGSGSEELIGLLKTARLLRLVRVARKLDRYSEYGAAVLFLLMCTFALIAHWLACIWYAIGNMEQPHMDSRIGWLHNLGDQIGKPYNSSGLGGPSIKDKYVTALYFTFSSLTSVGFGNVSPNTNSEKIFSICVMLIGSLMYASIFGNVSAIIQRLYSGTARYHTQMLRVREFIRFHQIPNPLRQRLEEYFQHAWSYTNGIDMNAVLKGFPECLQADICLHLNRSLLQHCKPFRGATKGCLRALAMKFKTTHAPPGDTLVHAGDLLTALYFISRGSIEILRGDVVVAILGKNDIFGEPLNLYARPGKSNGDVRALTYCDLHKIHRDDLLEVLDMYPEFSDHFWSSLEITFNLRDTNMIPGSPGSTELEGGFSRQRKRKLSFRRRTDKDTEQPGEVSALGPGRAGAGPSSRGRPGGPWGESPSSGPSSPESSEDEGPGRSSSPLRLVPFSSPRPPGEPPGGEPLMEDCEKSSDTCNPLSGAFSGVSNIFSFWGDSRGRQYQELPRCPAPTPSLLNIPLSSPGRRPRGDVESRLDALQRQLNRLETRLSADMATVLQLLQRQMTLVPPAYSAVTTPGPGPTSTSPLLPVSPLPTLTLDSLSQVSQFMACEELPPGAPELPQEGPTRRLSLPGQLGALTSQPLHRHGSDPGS

SMILES | hERG current change (%, negative = inhibition) at 10uM
Cc1ccc(NC2CCCN(C(=O)c3ccc4nccnc4c3)C2)cc1C (stereo not drawn) | -14.9%
COC(CNC(=O)c1ccc2nc3ccccc3c(=O)n2c1)OC | 10.8%
O=C(Cc1ccccc1)OCn1nnc2ccccc2c1=O | 6.75%
CC1CN(S(=O)(=O)c2cccc(-c3csc(-c4ccccc4)n3)c2)CC(C)O1 (stereo not drawn) | 0.164%
Cc1oc2cc3oc(=O)c(CC(=O)N[C@@H](C)C(=O)NC(Cc4ccc(Cl)cc4)C(=O)O)c(C)c3cc2c1C (stereo partly drawn) | 7.36%
COc1ccc(CC(=O)Oc2ccc(C)cc2Br)cc1S(=O)(=O)N1CCOCC1 | 5.5%
COc1cccc(-n2c(SCC(N)=O)nnc2-c2c[nH]c3ccccc23)c1 | -14.6%
Cc1ccc(S(=O)(=O)N2CCN(C(=O)CC(C)n3nc(C)c(Cl)c3C)CC2)cc1 (stereo not drawn) | -17.6%
Cc1cc(C(=O)NNC(=S)Nc2ccccc2C)cs1 | 18.8%
COc1ccc(C)cc1NC(=O)CN1CCN(CC(=O)Nc2ccccc2F)CC1 | -48.7%
O=C(c1nn(Cc2ccccc2)c(=O)c2ccccc12)N1CCN(C/C=C/c2ccccc2)CC1 | -57.7%
COc1ccccc1NS(=O)(=O)c1ccc(-c2cc(C)no2)s1 | -69.5%
Cc1cccc(NC(=O)c2csnn2)n1 | 15.2%
Cc1cccc(N2CCN(C(=O)c3cn4ccccc4n3)CC2C)c1 (stereo not drawn) | 8.18%
COc1ccc(O[C@H]2C=C[C@@H](c3ccccc3)O[C@@H]2COC(=O)CC/C(C)=N/OC[C@@H](O)[C@H]2O[C@@H]3OC(C)(C)O[C@@H]3[C@H]2O)cc1 | -30.7%
CC(=O)Nc1ncc2c(n1)CC(c1ccco1)CC2=O (stereo not drawn) | -14.2%
Clc1ccc(-c2nc3cc(CN4CCCCC4)ccc3o2)cc1 | -41.4%
O=C(Nc1ccc(Oc2ccccc2)cc1)c1ccco1 | -26.2%
O=C1CC2c3ccccc3C1C1C(=O)N(CCO)C(=O)C21 (stereo not drawn) | 21.5%
COCCCNc1nc2c(c(=O)[nH]c(=O)n2C)n1CC(O)COc1ccccc1 (stereo not drawn) | -14.9%
Cc1ccccc1NC(=O)N1CCc2ccccc2C1 | 6.13%
Cc1cc(C(F)(F)F)nc(SCC(=O)Nc2c(C)n(C)n(-c3ccccc3)c2=O)n1 | -28.4%
CCN(CC)S(=O)(=O)c1cccc(NC(=O)/C=C/c2cccc([N+](=O)[O-])c2)c1 | 10.9%

SMILES | hERG current change (%, negative = inhibition) at 10uM
O=C(O)C(=O)O.O=C(c1ccco1)N1CCN(Cc2ccccc2F)CC1 | 3.7%
Cc1c(NC(=O)c2cn3ccccc3n2)cccc1-n1cnnn1 | 7.21%
CCN1C(=O)C(CC(=O)NC2CCCCC2)N(CC)C1=O (stereo not drawn) | -3.06%
COc1ccc(NC(=O)CN(C)C(=O)C23CC4CC(CC(C4)C2)C3)cc1 | -30.8%
COc1ccc(CNC(=O)CNC(=O)N2CC(=O)Nc3ccccc32)cc1 | 0.58%
N#CCCn1cc(C(=O)Nc2ccccn2)c(-c2ccccc2)n1 | 2.78%
COC(=O)c1sc(S(=O)(=O)NCC(=O)O)c(C(=O)OC)c1C | 10.8%
O=C1CC(C(=O)NC2CCCCC2)C(c2ccccc2)O1 (stereo not drawn) | 3.7%
COc1cc(OC)cc(C(=O)Nc2ccc(S(=O)(=O)Nc3cc(C)on3)cc2)c1 | 12.3%
CC(C)Oc1ccc(C(=O)NC2(C(F)(F)F)N=C3SCCN3C2=O)cc1 (stereo not drawn) | 4.23%
Cc1cc(NC(=O)CSCC(=O)Nc2ccccc2N2CCCCC2)no1 | 2.52%
CC(=O)Nc1ccc(-c2nc3ccccc3c(=O)o2)cc1 | 22.8%
O=C(NC(=S)Nc1ccc(Br)cc1)C1CCC1 | -7.27%
O=C(NCCc1ccccc1)c1ccc(CS(=O)Cc2cccc(Cl)c2)o1 (stereo not drawn) | -6.23%
CCc1nc2ccccc2c(C(=O)NCc2ccccc2)c1C | -8.97%
Cc1cccc(Nc2ncnc(N)n2)c1 | 15.6%
COc1ccc2nc(C)cc(SCC(=O)[O-])c2c1.[Na+] | 24.1%
Cc1c(Cc2ccccc2)c(=O)oc2cc(OCc3ccc(C(=O)O)cc3)ccc12 | -1.42%
COc1ccc(NS(=O)(=O)c2ccc(NC(=S)NC(=O)c3cccnc3)cc2)nn1 | 10.1%
Cc1cccc(N(C(=O)CNC(=O)c2ccco2)C(C(=O)NC2CCCCC2)c2cccnc2)c1 (stereo not drawn) | 15.2%
COC(=O)c1ccc(NC(=O)CCN2CCCCC2)cc1.Cl | -47.9%
CC(C)CNS(=O)(=O)c1ccc(CCC(=O)NCc2ccc(Cl)cc2)cc1 | -29.3%
CC(NC(=O)c1cccs1)C(c1cccs1)N1CCN(c2ccccc2)CC1 (stereo not drawn) | -1.86%

SMILES | hERG current change (%, negative = inhibition) at 10uM
CC(CCc1ccccc1)NC(=O)CC(C)c1ccccc1 (stereo not drawn) | -13.1%
CC(=O)c1ccccc1OCCOc1ccccc1C(C)=O | -36.6%
CCOc1ccc2nc(C(=O)N3CCCC(C)C3)sc2c1 (stereo not drawn) | -2.28%
Cn1c(COc2ccc3ccccc3c2)nnc1SCC(N)=O | 1.44%
COc1ccc(-c2cc3nc4c(c(N5CCC6(CC5)OCCO6)n3n2)CCC4)cc1 | -4.92%
COC(=O)C1=CN(C(C)C)C=C(C(=O)OC)C1c1cc2c(cc1Br)OCO2 | -17.4%
COc1ccc(C(CNC(=O)c2ccc(OCc3ccccc3)cc2)N2CCOCC2)cc1 (stereo not drawn) | -18.1%
Cc1ccc(S(=O)(=O)N(C)CCCC(=O)Nc2ccncc2)cc1 | -63%
COCCN1C(=O)c2ccc(C(=O)NCc3ccco3)cc2C1=O | -7.98%
CCOC(=O)c1cc(=O)c2ccc(OCC(=O)Nc3ccccc3)cc2o1 | 4.88%
CC(C)C(c1nnnn1C1CCCC1)N1CCN(C(=O)c2ccco2)CC1 (stereo not drawn) | -26.8%
O=c1c2cn[nH]c2nc(SCc2c(F)cccc2F)n1-c1ccc(Cl)cc1 | 19.5%
O=c1[nH]cc(S(=O)(=O)c2ccccc2)[nH]1 | 12.2%
O=C(Oc1cccc(N2C(=O)CCC2=O)c1)c1ccccc1 | 9.31%
Cc1cccc(C(=O)n2cnnc2N)c1 | 21.8%
C=CCN1CCN(C(c2cccc(OC)c2OC)c2nnnn2CCC(C)C)CC1.Cl (stereo not drawn) | -2.34%
O=C(CCNC(=O)C1CCN(S(=O)(=O)c2ccccc2)CC1)NCc1ccncc1 | 25.9%
CCCOc1ccc(N2C(=O)C3ON(c4ccccc4)C(CCC)C3C2=O)cc1 (stereo not drawn) | 13.6%
COc1ccc(Br)cc1CNc1ccc(N2CCOCC2)cc1 | 8.73%
O=c1[nH]cnc2sc3c(c12)CCCC3 | 11.6%
S=C(NCc1cccc(Cl)c1)NCc1ccco1 | 13%
CN=c1scc(C)n1/N=C/c1cc(Br)c(O)c(OC)c1 | 15.8%
CCc1cc2c(=O)c(-c3nc(C)cs3)c(CCCC(=O)O)oc2cc1O | 29.7%

SMILES | hERG current change (%, negative = inhibition) at 10uM
CCNc1nc2cccnc2s1 | 4.42%
CCOc1ccccc1NC(=O)COC(=O)C(CC(C)C)N1C(=O)C2CC=CCC2C1=O (stereo not drawn) | 8.06%
CC(=O)c1cccc(NC(=S)NCCC2=CCCCC2)c1 | -18.7%
CCCC(=O)Nc1nnc(COC)s1 | 4.96%
Cc1ccc(-c2nc(CSCC(=O)N3CCCC3)c(C)o2)cc1 | -13.6%
Cc1ccc(S(=O)(=O)Nc2ccc3c(c2)OCCO3)cc1 | 10.1%
COc1ccccc1NC(=O)CCC(=O)OCC(=O)c1ccc(C)c([N+](=O)[O-])c1 | 11.8%
CCOC(=O)c1c(C)[nH]c(C)c1C(=O)C(Cc1ccccc1)N(C)C.Cl (stereo not drawn) | 4.71%
NS(=O)(=O)c1cccc(NC(=O)c2cccc(-c3ccc(O)cc3)c2)c1 | 25.6%
CCc1ccc(S(=O)(=O)N/N=C\c2ccc3c(c2)OCO3)cc1 | 9.85%
CS(=O)(=O)Nc1nnc(SCC(=O)Nc2cccc([N+](=O)[O-])c2)s1 | 4.31%
CC(NC(=O)c1cccc(C(F)(F)F)c1)C1CCCO1 (stereo not drawn) | -3.64%
Cc1ccccc1OCCC(=O)OCC(=O)NC1CC1 | -12.3%
COC(=O)[C@H](CCSC)NC(=O)c1cc2c(cn1)[nH]c1ccccc12 | 0.117%
COc1ccc(-c2nc(CCNC(=O)c3ccco3)cs2)cc1OC | -4.6%
O=C(NCc1cccnc1)c1cccc(Cl)c1 | 3.95%
Cc1ccc(S(=O)(=O)NNC(=O)Nc2cccc3ccccc23)cc1 | 16.2%
N#CCCN(C(=O)CO/N=C/c1cccc([N+](=O)[O-])c1)c1ccccc1 | -18.9%
Cl.O=C(CCN1CCOCC1)c1ccc(Br)cc1 | 25.2%
Cc1nn(C)c(=S)n1-c1ccc(Cl)cc1 | 15.4%
CCOc1ccc(S(=O)(=O)NCCC(=O)N(C)Cc2cccs2)cc1 | -20.9%
